# Measurements reported in ChEMBL document CHEMBL1157539, “Thousands of chemical starting points for antimalarial lead identification” (Nature, 2010).
# The full ranking holds about 13,000 compounds; the median of “IFI” is about 4, and the highest 2% start at about 17. Some of the results follow.
# Experiment: GSK_TCMDC: Inhibition Frequency Index (IFI). The number of non-kinase HTS assays where a compound showed > 50 % inhibition, expressed as a percentage of the number of such assays in which the compound was tested (-0 is zero)
# Type: functional
row,Compound,IFI [%]
1,CN(C)CCOc1ccnc2ccc(NC(=O)Cc3ccc(-c4ccncc4)c4ccccc34)cc12,3.79
2,O=C(Nc1cccc(C(F)(F)F)c1)c1cccc(S(=O)(=O)NCC2CCCN(Cc3ccccc3)C2)c1 (stereo unspecified),4.82
3,NC(=O)c1sc(-n2cnc3ccc(C(=O)NCCN4CCOCC4)cc32)cc1OCc1ccccc1C(F)(F)F,2.63
4,Cc1cc(=NN=Cc2ccc(Cl)cc2)c2ccc(F)cc2[nH]1,0.76
5,CCc1c(C(=O)NC2CCC(N3CCC(c4ccccc4C)CC3)CC2)[nH]c2ccc(Br)cc12 (stereo unspecified),15.8
6,COc1cc(F)c2ncc(Cl)c(CCN3CCC(NCc4ccc5c(n4)NC(=O)CO5)CC3)c2c1,4.41
7,CC[C@H]1CN(C/C=C/c2ccc(OC)cc2)CC[C@H]1CCCc1ccnc2ccc(O)cc12,4.58
8,CC(C)(C)c1cc(Cl)cc(C(=O)Nc2cc([N+](=O)[O-])ccc2Cl)c1O,13.7
9,CCCc1cc(NCC)nc(Nc2ccc(F)cc2)n1,3.03
10,Cc1cc(N[C@@H](Cc2ccccc2)C(=O)NCc2cccc(F)c2)nc(NCCCOC(C)C)n1,18.2
11,CC(CN1CCN(C)CC1)C(=O)Nc1ccc(-c2csc(-c3nc4ccccc4[nH]3)c2)cc1 (stereo unspecified),1.79
12,CC(C)(C)c1ccc(NC(=O)c2cccc(CN3CCCN(Cc4ccc(F)cc4)CC3)c2)cc1,10
13,C=C(C)Cn1cc(C2CCN(CCCCNC(=O)c3sc(-c4ccc(Cl)cc4Cl)nc3CO)CC2)c2ccccc21,9.01
14,CC(C)Cn1c(N)cc(=O)n(C)c1=O,-0
15,Cc1cc(OCCCN2CCC(NS(=O)(=O)c3cccc(Br)c3)CC2)c2ccccc2n1,2.59
16,CCn1c(-c2nonc2N)nc2c(-c3cccc(Cl)c3)ncc(OCCCNCc3cnc(C)nc3N)c21,7.62
17,Cc1cc(N[C@@H](Cc2ccccc2)C(=O)NCCCOC(C)C)nc(NCCc2ccc(F)cc2)n1,2.44
18,Brc1cc(CNCCCNc2nc3ccccc3[nH]2)sc1Br,5.84
19,COc1ccc(Nc2nccc(NCC(O)c3ccc(C(F)(F)F)cc3)n2)cc1 (stereo unspecified),8.65
20,Cn1cccc1C(=O)C(=O)Nc1ccc(-c2ccc(-c3nc4cc(F)ccc4[nH]3)cc2)cc1,5.26
21,COc1cc2c(cc1OC)C(C(=O)Nc1ccc(C(F)(F)F)cc1)C(c1cccs1)N(C)C2=O (stereo unspecified),4.26
22,O=S(=O)(NCCN1CCCC1)c1ccc(-c2ccc(CNCc3ccsc3)cc2)s1,9.26
23,O=C(Nc1cccc(OCc2ccccc2)c1)c1ccc(CN2CCC(Cc3ccccc3)CC2)cc1,5.26

row,Compound,IFI [%]
1,CCNc1cc(C)nc(Nc2ccc(NC(=O)c3ccc(OC)c(OC)c3)cc2)n1,3.92
2,CC[C@@]1(O)C(=O)OCc2c1cc1n(c2=O)Cc2c-1nc1cc3c(cc1c2CN1CCN(C)CC1)OCCO3,5.19
3,N#Cc1c(-c2ccccc2)cn2c1[nH]c(=O)c1ccccc12,1.56
4,CCCC(=O)c1cnc2c(I)cccc2c1Nc1ccccc1C,2.27
5,CC(C)CNC(=O)c1cncc(-c2ccc(CN(C)C3CCN(C)CC3)cc2)c1,0
6,CCc1ccc(O)c(-c2cc(C(=O)Nc3cccnc3)[nH]n2)c1,1.45
7,COc1ccc2nccc(N3CCC(SCCNCc4ccc5c(n4)NC(=O)CS5)C3)c2n1 (stereo unspecified),12.1
8,COc1cc2c(cc1N1CC(C)NC(C)C1)N(C(=O)c1ccc(-c3ccc(-c4ncc[nH]4)cc3C)cc1)CC2 (stereo unspecified),1.45
9,O=C(Nc1ccc(Br)cc1)N(CCN1CCOCC1)CC(O)COCc1ccc(F)cc1 (stereo unspecified),1.42
10,CCCCN1CCN(CCCCNc2c3ccccc3nc3ccccc23)CC1,5.67
11,Cc1ccc(C2CCN(CCCCNC(=O)c3ccc(NC(=O)c4ccc(Cl)cc4)cc3)CC2)c(OCC2CC2)c1,8.33
12,CCc1cn2c3c(cc(C(=O)N[C@@H](Cc4ccccc4)[C@H](O)CNCc4cccc(C)c4)cc13)N(C)S(=O)(=O)CC2,5.8
13,Nc1ccc(-c2nc3cc(Oc4ccc5[nH]c(-c6ccc(N)cc6)nc5c4)ccc3[nH]2)cc1,5.52
14,Cc1ccc(Nc2nc(C)cc(NC3CC3)n2)cc1,4.62
15,OC1CCCN(Cc2cccc(-c3ccc(-c4nc5ccccc5[nH]4)cc3)c2)C1 (stereo unspecified),-0
16,COc1ccc(Nc2nc(C)cc(NCc3ccc(-c4c(C)noc4C)cc3)n2)cc1,10
17,N#Cc1ccc(-c2ccc(C(=O)NC3CCN(CCN4CCC(c5cn(CCO)c6ccccc56)CC4)CC3)cc2)cc1,1.83
18,Oc1ccc(-c2nc(-c3ccc4oc5ccc(-c6[nH]c(-c7ccc(O)cc7)nc6-c6ccccc6)cc5c4c3)c(-c3ccccc3)[nH]2)cc1,3.45
19,Fc1ccc2[nH]c(-c3cccc(-c4ccc(CN5CCN(c6ccncc6)CC5)cc4)c3)nc2c1,5.63
20,CC(C)(C)C1CC(=O)CC2C(=O)N(c3ccc(Br)cc3)C(=O)C21 (stereo unspecified),0.74
21,CCC(C)c1cnc2nc(N)nc(N)c2c1C (stereo unspecified),2.31
22,COc1ccc(CNCc2ccsc2)cc1-c1ccc(S(=O)(=O)NCCN2CCCC2)c(C)c1,7.84
23,CSc1ccc2ccccc2c1CNCCCCCCNCc1c(SC)ccc2ccccc12,12.3

row,Compound,IFI [%]
1,CCCC(C(=O)OCCN(CC)CC)(c1ccc(Cl)cc1)c1ccc(Cl)cc1,0.73
2,Cc1ccc(C)c(NC(=O)CC2C(=O)N(c3ccccc3)C(=S)N2Cc2ccco2)c1 (stereo unspecified),0.76
3,CC(C)CNCc1ccc(-c2ccccc2CN(C(=O)NCCc2ccccc2)C2CCN(Cc3ccccc3)CC2)cc1,8.51
4,Nc1ccc2nc(C=Cc3ccccc3)[nH]c2c1,3.39
5,Oc1ccc(CCNCCCCCCNCCc2ccc(Cl)c(Cl)c2)cc1O,8.03
6,COc1ccc(NC(=O)[C@H](CC(C)C)Nc2cc(C)nc(NCCc3ccccc3OC)n2)cc1,10.5
7,CCCCCCN1CCC(NCc2cccc([N+](=O)[O-])c2)CC1,1.44
8,O=C(/C=C/c1ccc(Cl)cc1Cl)NCCCCCN1CCC(c2c[nH]c3ccccc23)CC1,7.75
9,CC(=O)Nc1ccc(C(=O)Nc2ccc(-c3cccc(-c4nc5ccccc5[nH]4)c3)cc2)cn1,3.57
10,CCCc1cc(Cc2cnc(N)nc2N)cc(CCC)c1OCCCCC(=O)OC,6.47
11,CC1N=C(N)N=C(N)N1OCc1ccccc1 (stereo unspecified),3.01
12,Nc1c2c(nc3ccc(C(=O)Nc4ccccc4)cc13)CCCC2,2.05
13,C=CCn1c(=N)c(C(=O)NC2CCCCC2)cc2c(=O)n3cccc(C)c3nc21,1.79
14,COc1ccc(CCNCCCCNCCc2ccc(OC)c3ccccc23)c2ccccc12,13.9
15,CC(C)(C)C1CCc2nc(N)nc(N)c2C1 (stereo unspecified),2.8
16,Cc1cc(-c2cc(-c3ccc(OCCN(C)C)cc3)[nH]c2-c2ccc3c(c2)CCC3=NO)ccn1,4.26
17,CCC(C)NS(=O)(=O)c1ccc2nc(Nc3ccc(C)c(Cl)c3)n(C3CCCCC3)c2c1 (stereo unspecified),2.19
18,O=C(NCCCCN1CCC(c2ccc3c(c2OCCCO)CCCC3)CC1)c1ccc(-c2ccc(C(F)(F)F)cc2)cc1,8.62
19,CC(=O)NC1=NC(C)(C)N(OCc2ccc(Cl)c(Cl)c2)C(NC(C)=O)=N1,4.32
20,COc1ccc(-c2cncc3ccc(C(=O)NCCCn4ccnc4)nc23)cc1,5.49
21,CC(C)(C)c1ccc(CNC(=O)c2ccc(-c3nc4cc(C(C)(C)C)ccc4[nH]3)cc2)cc1,1.48
22,COc1cccc(NC(=O)CSc2nc(-c3ccccc3Cl)ns2)c1,-0
23,Fc1cccc(COc2ccc(Nc3ncnc4sc(C#C[C@H]5CC[C@H](CN6CCOCC6)N5)cc34)cc2Cl)c1,2.88

row,Compound,IFI [%]
1,COc1ccc2c(=NN=Cc3cccnc3)cc(C)[nH]c2c1,0.71
2,Cc1ccc(C(=O)Nc2cc(S(=O)(=O)N3CCCC3)ccc2OCC(F)(F)F)cc1,0.95
3,Cc1cccc(C(=O)N2CCN(Cc3cccc(NC(=O)c4cccs4)c3)CC2)c1,3.85
4,CCCCN1CCN(CC(O)CNC(=O)Nc2ccc(Cl)cc2)CC1 (stereo unspecified),-0
5,Cc1cc(N[C@@H](Cc2ccccc2)C(=O)NCCc2ccccc2)nc(NCCc2ccc(F)cc2)n1,17.1
6,O=c1sn(-c2csc3ccccc23)c2ccccc12,18.5
7,COc1cc(Nc2nc(N)c3cc(OC)c(OC)cc3n2)cc(OC)c1,1.67
8,O=C(Nc1cccnc1)c1cc(C(=O)Nc2cccnc2)cc([N+](=O)[O-])c1,-0
9,Cc1noc(C)c1-c1cccc(CNCc2cccc(-c3cccc(-c4nc5cccc(C)c5[nH]4)c3)c2)c1,1.94
10,c1cc2[nH]c(CCc3nc4cc(C5=NC6CCCCC6N5)ccc4[nH]3)nc2cc1C1=NC2CCCCC2N1 (stereo unspecified),4.35
11,CC(=O)N(C)c1cccc(C(=O)Nc2ccc(-c3cccc(-c4nc5cc(C(F)(F)F)ccc5[nH]4)c3)cc2)c1,7.76
12,O=c1cc(N2CCCNCC2)c(Cl)nn1Cc1ccc(NS(=O)(=O)c2ccc(Oc3ccccc3)cc2)cc1,7.64
13,O=C(NC1CCN(c2ccnc3cc(Cl)ccc23)C1)c1ccc(F)cc1 (stereo unspecified),1.54
14,COc1cc2c(cc1C(F)(F)F)N(C(=O)Nc1cc(F)cc(-c3cncnc3)c1)CC2,4.38
15,COc1ccc(N2CCN(C(CNC(=O)C3CCCCC3)c3ccc4c(c3)OCO4)CC2)cc1 (stereo unspecified),0
16,O=C(Nc1cc(F)cc(-c2cccnc2)c1)c1ccc2c(=O)n(Cc3ccccc3)cnc2c1,0.93
17,CN(C(=O)/C=C/c1cc(C(F)(F)F)ccc1F)C1CCN(CCCCCNC(=O)/C=C/c2ccc(Cl)c(Cl)c2)CC1,12.4
18,CCCCN(CCCC)CCOc1cc2c(cc1OC)CCN2C(=O)/C=C/c1ccccc1Cl,3.65
19,Cc1cc2c(cc1C(F)(F)F)N(C(=O)Nc1cnc(OCCN(C)C)c(C(F)(F)F)c1)CC2,6.04
20,N[C@@H](Cc1ccc(O)cc1)C(=O)NC(c1ccccc1)c1c(O)ccc2ccccc12 (stereo partly specified),0.73
21,COc1ccc(Nc2nc(NC3CCN(C)CC3)cc(-c3ccc(OC)cc3)n2)cc1,8.57
22,Cc1ccc(CN2CCCN(Cc3ccc(C(=O)Nc4ccc(Cl)cc4)cc3)CC2)s1,14.5
